This is an account of results in paper PMC9911399, “Two distinct binding modes provide the RNA-binding protein RbFox with extraordinary sequence specificity”.

Changes are numbered by the printed parent chain; changes in the protein carry UniProt numbers. The list shows a part of the results.

First the molecules themselves.
T1: RBFOX1 RRM (Homo sapiens, UniProt Q9NWB1 109-208)
T1 sequence: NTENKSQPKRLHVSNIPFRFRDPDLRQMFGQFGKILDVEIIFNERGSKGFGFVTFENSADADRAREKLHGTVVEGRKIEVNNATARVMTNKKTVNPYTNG

B1: CGCGAAG (DNA:RNA)
RNA: GGGAGACCGGAAUUCAGAUUGUCCCGCGAAGUUAAAUCCCGUCGUAGCCACCA
DNA 1: CAATCTGAATTCCGGTCTCCC
DNA 2: TGGTGGCTACGACGGGATT
B2: CUGCAUC (DNA:RNA)
RNA: B1 RNA with G26U, C27G, G28C, A30U, G31C
DNA 1: CAATCTGAATTCCGGTCTCCC
DNA 2: TGGTGGCTACGACGGGATT
B3: GAAAUAC (DNA:RNA)
RNA: B1 RNA with C25G, G26A, C27A, G28A, A29U, G31C
DNA 1: CAATCTGAATTCCGGTCTCCC
DNA 2: TGGTGGCTACGACGGGATT
B4: AGUUGUU (DNA:RNA)
RNA: B1 RNA with C25A, C27U, G28U, A29G, A30U, G31U
DNA 1: CAATCTGAATTCCGGTCTCCC
DNA 2: TGGTGGCTACGACGGGATT
B5: GAAAUUG (DNA:RNA)
RNA: B1 RNA with C25G, G26A, C27A, G28A, A29U, A30U
DNA 1: CAATCTGAATTCCGGTCTCCC
DNA 2: TGGTGGCTACGACGGGATT
B6: AUCUCUG (DNA:RNA)
RNA: B1 RNA with C25A, G26U, G28U, A29C, A30U
DNA 1: CAATCTGAATTCCGGTCTCCC
DNA 2: TGGTGGCTACGACGGGATT
B7: CGGCGGU (DNA:RNA)
RNA: B1 RNA with C27G, G28C, A29G, A30G, G31U
DNA 1: CAATCTGAATTCCGGTCTCCC
DNA 2: TGGTGGCTACGACGGGATT
B8: UUGAGGC (DNA:RNA)
RNA: GGGAGACCGGAAUUCAGAUUGUCCUUGAGGCUUAAAUCCCGUCGUAGCCACCA
DNA 1: CAATCTGAATTCCGGTCTCCC
DNA 2: TGGTGGCTACGACGGGATT
B9: CGUAACU (DNA:RNA)
RNA: B1 RNA with C27U, G28A, A30C, G31U
DNA 1: CAATCTGAATTCCGGTCTCCC
DNA 2: TGGTGGCTACGACGGGATT

This experiment concerns the target T1, RBFOX1 RRM. The experiment is described as follows: EMSA; HiTS-Eq, 1 nM pool, 10 min; buffer printed only for the single-RNA assays: 10 mM Tris pH 7.5, 150 mM NaCl, 3.4 mM EDTA, 0.001% NP-40, 30 C. To be noted: tags: His6 N-terminal (pET28a); label: 5' 32P. In short, it runs like this: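 These values rest on relative association constants, computed from read-count changes of each RNA species versus the control reaction and normalised to the cognate motif. Reads came from free RNA recovered by 8% native PAGE after purified RbFox RRM (wild type or mutant) at increasing concentrations was equilibrated for 10 min in 50 µL with 1 nM of a 5′-radiolabelled pool with 7 randomized nucleotides and DNA-annealed flanks.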
For orientation: In EMSA bound probe runs differently from free probe, usually more slowly.
On to B1, for which the binding signal is 0.0123 KA relative to UGCAUGU.
For B2, the binding signal was 0.0212 KA relative to UGCAUGU.
For B3, the binding signal is 0.00324 KA relative to UGCAUGU.
In the case of B4, the binding signal is 0.013 KA relative to UGCAUGU.
Take B5: the binding signal is 0.0105 KA relative to UGCAUGU.
In the case of B6, the binding signal was 0.00831 KA relative to UGCAUGU.
The value for B7 was 0.0226 KA relative to UGCAUGU; that for B8 was 0.0124 KA relative to UGCAUGU; that for B9 was 0.00439 KA relative to UGCAUGU.
